Laboratory results: the RNAGym collection of RNA variant scans (doi:10.7554/elife.90254)
Read counts are not given, so values of variants with three or more changes are uncertain.

B1: OR4K15 (parent)
chain: GUUAACGGUCAUAGGCCAUGGAAACUAGGAGCACCAUUUCGCUGCCAGUGAAGAAAUGAACAAAGAAAAUCUGGGCCAGGCAGGCAUCAAAAGAAAUAGUCUUGCGCUCAACCAGAAAGUCUGUAAUCAUUUUAAGGGUA

Variants of: B1
Experiment: self-cleavage, relative activity (ratio to wild type); higher = more cleavage; in vitro, sequencing; the parent is a self-cleaving ribozyme
In the case of A5G G53A U103C U132C G138A, the self-cleavage is reported as 0.99. A68G A86G A91G showed a self-cleavage of 0.06. Variant A5G U39A A55G A82G A96U U102C has a self-cleavage of 0.7. U43C A96G U122C gave a self-cleavage of 0.37. A56G C105G A116U gave a self-cleavage of 0.01. A52G A66G A111G A114G U132C gave a self-cleavage of 0. U49C A95G A118G A129G gave a self-cleavage of 0.62. In the case of U97C A118G A126G, the self-cleavage is reported as 0.77. U102C U103C A111G A125G gave a self-cleavage of 0.01. A36C A82G A92G A118U U139G showed a self-cleavage of 0.07. Variant C6U U70C U102A C112G has a self-cleavage of 0.03. With A18G A36G A98U A114U A116G the self-cleavage was 0.02. With A30G A111U U132C the self-cleavage was 0.17. In the case of G53A A60G A82G, the self-cleavage is reported as 0.61. For A94G G115U U124C, the self-cleavage was 0.01. For A54G A68G U72C U122A, the self-cleavage was 0.11. In the case of A23U A24G A67G, the self-cleavage is reported as 1.15. Work on A56G A89G A94G yielded a self-cleavage of 0.92. A11G A63U A68G gave a self-cleavage of 0.71. For A52G A59G A94U, the self-cleavage was 0.73. Work on U2C A36U A51G U70C yielded a self-cleavage of 0.3. A24G A64C A98G A117G gave a self-cleavage of 0.39. U37C A64G A86G gave a self-cleavage of 1.13. For A52G A91G A118G, the self-cleavage was 1.44. U9C A24G A118G gave a self-cleavage of 0.94. U2C A23G A63G A86G G123A U132C showed a self-cleavage of 1.4. U19A U37G U39C A60G A82G A90G gave a self-cleavage of 0.27. In the case of U37C U38C A62G A96U A117G, the self-cleavage is reported as 2.39. With U37C A63G U100C U102C the self-cleavage was 2.39. Variant A5G A23G U130C has a self-cleavage of 0.75. A27C A64G A90G U130A gave a self-cleavage of 1.16. For U39C A51U A94U, the self-cleavage was 1.5. In the case of A54G A129G A135G, the self-cleavage is reported as 1.49. Work on U19C A22G A60U A62G yielded a self-cleavage of 0.6. A33G U70C U103C U122A gave a self-cleavage of 0.05. U38A G119A U130C showed a self-cleavage of 0.55. With U2C A60U U127A the self-cleavage was 1.86. For A4G U38C A89U U120C, the self-cleavage was 0.73. C45U U102C U130G gave a self-cleavage of 1.76. Work on A56G A63G A114U yielded a self-cleavage of 0.07. Work on A51G G73A A91G U124C A135G yielded a self-cleavage of 0.06. Work on U38A G41A A95G A125U U132C yielded a self-cleavage of 1.58. A11U U19C C42G showed a self-cleavage of 1.63. Variant U19A A36G U38C A60G C107A has a self-cleavage of 0.05. With A24G A82G U87A U130C the self-cleavage was 0.14. With A5U U9C A22G U57C U103C the self-cleavage was 0.24. Variant A51G A59G A66G U97C A118G has a self-cleavage of 0.3. With A55G A60G U132C the self-cleavage was 0.85. In the case of A67G A89G A117G, the self-cleavage is reported as 1.53. Work on A92G A95G A126G yielded a self-cleavage of 2.04. With A36G A63U G73U the self-cleavage was 0.11. Work on U108C A110G A114G yielded a self-cleavage of 0.01. A23G A52G A54G U97C U108C gave a self-cleavage of 0.05. A23G U72C U103C A125G showed a self-cleavage of 0.03. Work on A5G A89U U103C U122A yielded a self-cleavage of 0.6. Work on A33G U39C A68G U103C yielded a self-cleavage of 0.88. For A18U U102C C105A, the self-cleavage was 0.02. A59G A62G A89G gave a self-cleavage of 0.89. U2C A47G A51G A52G gave a self-cleavage of 0.46. Variant A33G A86G A96G U130C G137A has a self-cleavage of 0.26. A11U A56C U70C gave a self-cleavage of 0.41. Work on U9C A116G A140G yielded a self-cleavage of 0.75. A23G A47G U49A gave a self-cleavage of 0.51. For A11G A56U A111G A126G, the self-cleavage was 0.04. U38C C105U U108A showed a self-cleavage of 0.03. For A55G A78G U127C, the self-cleavage was 0.12. U43G A51G A55G U108C A110U U120G gave a self-cleavage of 0.01. With U49C G65A G106A U131C U132C the self-cleavage was 0.02. For U3C U9C U39C, the self-cleavage was 0.8. For A11G A23G A52G A64U A67G A82U, the self-cleavage was 0.12. With U39A A51G A116U U120A the self-cleavage was 0.1. For A47U A60G A69U, the self-cleavage was 1.15. For U2C A47G U72G, the self-cleavage was 0.29. A60G A63G C81U A94U gave a self-cleavage of 0.77. For A11G U37C A129U, the self-cleavage was 0.71. Variant A54G A59G A90G has a self-cleavage of 0.77. Work on A52G A92G A114G yielded a self-cleavage of 0.15. For A23G A52U A118G, the self-cleavage was 0.92. In the case of A47C A54G A117G, the self-cleavage is reported as 2.72. In the case of C34A A66U C105A, the self-cleavage is reported as 0.01. Variant C45G A47G A56G has a self-cleavage of 1.04. A18C U37C A129G gave a self-cleavage of 1.17. A4G A86G G123A gave a self-cleavage of 1.39. Variant A62C U130C U133C has a self-cleavage of 1.13. Variant U19A A24G A27G C76U A95G has a self-cleavage of 0.07. A18U A51U A92G A114G U120G gave a self-cleavage of 0.07. With U9C U39C A59U U70C the self-cleavage was 0.69. With A86G C101U U132G A134G the self-cleavage was 0.02. In the case of A5G U12C U70A G84A U87A A91G, the self-cleavage is reported as 1.16. In the case of U49C A66G A67G C109U A118G, the self-cleavage is reported as 0.13. In the case of U3C U37C A116G, the self-cleavage is reported as 0.57. In the case of A36U A68G U122A, the self-cleavage is reported as 0.5. A13G U38C A116G A140U showed a self-cleavage of 0.61. With A22G A66G A129G A140G the self-cleavage was 1.21. In the case of U9C U39C A51G, the self-cleavage is reported as 2.39. With U43A A52G A64G A118U the self-cleavage was 1.02. Variant A30G G44U U120C has a self-cleavage of 0.84. G28A A129U U131C showed a self-cleavage of 0.7. For A18G G29U A54G C88U A89U A94G, the self-cleavage was 1.26. With A51G A59G A78U U87C U102A A140G the self-cleavage was 0.1. For A24G A36G A47G A82C, the self-cleavage was 0.03. For U43C A69G A118G, the self-cleavage was 0.76. A13G U70C U102A gave a self-cleavage of 0.33. In the case of U9A A118G A126G, the self-cleavage is reported as 0.44. In the case of U12C A13G A69G A91G, the self-cleavage is reported as 0.82. A13U G20A U37A A55G U97A A126G U131C showed a self-cleavage of 1.12. With A13C A23G A33G A52G U122C U127C the self-cleavage was 0.04. With A27G A52G A56C the self-cleavage was 1.06. U2C A5C A22G A60G A90G A96G A117G showed a self-cleavage of 1.16. With A13G U39A A55G A59U A90U the self-cleavage was 0.21. Variant U37C U39C A68G A94G has a self-cleavage of 1.2. For U122A U127A A129G, the self-cleavage was 2.13. With A52G A68G U108C the self-cleavage was 0.01. For A23G G44U U103C, the self-cleavage was 1.08. C40U A82G A90C gave a self-cleavage of 0.15. A18G A92G U102C A117G A118U showed a self-cleavage of 1.8. In the case of A92U A94G A96G U120C, the self-cleavage is reported as 0.31. Variant A11U G20A A54U A56U A64G U87C has a self-cleavage of 0.32. Variant A13G A90G U103C has a self-cleavage of 0.83. With A13G A110U U130C the self-cleavage was 0.97. A18U A33G U43A A78G A86G A118U A126G showed a self-cleavage of 0.04. A23G C32U A110G U130C gave a self-cleavage of 0.11. In the case of A18G U103C U131A U139A, the self-cleavage is reported as 0.74. For U19C A78G A91G A95G U108A C113U, the self-cleavage was 0.01. For A5G A54G A66G C113U, the self-cleavage was 0.08. In the case of A18C A55G U87C A110G U122C, the self-cleavage is reported as 0.03. With U38C A89G A92G A94G the self-cleavage was 2.37. For A59G A62U A67G A116G, the self-cleavage was 0.57. With U43A A94G U127C the self-cleavage was 1.02. A18G A82G U100C U103C showed a self-cleavage of 2.05. With A52G A54U A60G the self-cleavage was 0.69. A24U G83A A95G A96G gave a self-cleavage of 2.4. Variant A30G A64G A68G has a self-cleavage of 0.94. Variant A4G U39C U57A A62G A68G A118U U132A A140G has a self-cleavage of 0.72. Variant A24U A36G U43C has a self-cleavage of 1.7. For U9C G29U A126U, the self-cleavage was 1.35. U37C A62G U124C showed a self-cleavage of 0.84. For A13G A24G A51U A62C, the self-cleavage was 0.96. With U37C U57C U103C the self-cleavage was 0.15. A62G A68G U108A U130C gave a self-cleavage of 0.01. C45U A66U C113U showed a self-cleavage of 0.03. For U9C A59U A64G, the self-cleavage was 1.13. With A11G G41A A52G U72A U87C U100C the self-cleavage was 0.2. A18G A62G G79A A96G C113U U132C showed a self-cleavage of 0.01. A64U A110U A114G A129G gave a self-cleavage of 0.08. U19C G41A A60G A110G gave a self-cleavage of 0.33. U2C A52G U70C U108C gave a self-cleavage of 0.02. Work on A36G A56G A82G U127C yielded a self-cleavage of 0.11. A96G A126G A129G U139C gave a self-cleavage of 0.76. Variant G65A A91G U102A A125G A135G has a self-cleavage of 0.13. A78G U108C U131C A135G gave a self-cleavage of 0. U9A C32U C81U U102C U132C gave a self-cleavage of 0.49. For U9C A33G U97C A110U, the self-cleavage was 0.44. Work on A30U U37C A67G U100C yielded a self-cleavage of 2.19. Work on U9G A78G A91G yielded a self-cleavage of 0.37. With A94G U127C G137A the self-cleavage was 1.17. With A59G A78G A111G the self-cleavage was 0.07. Variant A5G G7A U49C U108C has a self-cleavage of 0.06. For A96G A118G U132C, the self-cleavage was 1.34. U87A A94U U97C U139A gave a self-cleavage of 1.13. Work on A52G A111U A116G A126G yielded a self-cleavage of 0.03. U9C A18G A66G A86G showed a self-cleavage of 1.41. Work on U43A A69G G123A yielded a self-cleavage of 0.69. For U3C A36U A89U A96G, the self-cleavage was 1.36. In the case of A13U A18G A27G, the self-cleavage is reported as 0.88. A60G A91G U130C gave a self-cleavage of 0.3. U2C A5G A54G A55G U70G A78G A82G A92G gave a self-cleavage of 0.21.
